# Reference: PMC4336329 (PLoS ONE, 2015)
# Among all 310,000 compounds or so, about 2,200 (0.71%) showed an effect of 50% or more. Effects have a minus sign here. This is one part of the list.
# Target: human ether-à-go-go-related gene (hERG) potassium channel (human, UniProt Q12809)
# Test: primary screen, population patch clamp on CHO cells stably expressing hERG
# Chain of human ether-à-go-go-related gene (hERG) potassium channel (Q12809 whole entry, looked up): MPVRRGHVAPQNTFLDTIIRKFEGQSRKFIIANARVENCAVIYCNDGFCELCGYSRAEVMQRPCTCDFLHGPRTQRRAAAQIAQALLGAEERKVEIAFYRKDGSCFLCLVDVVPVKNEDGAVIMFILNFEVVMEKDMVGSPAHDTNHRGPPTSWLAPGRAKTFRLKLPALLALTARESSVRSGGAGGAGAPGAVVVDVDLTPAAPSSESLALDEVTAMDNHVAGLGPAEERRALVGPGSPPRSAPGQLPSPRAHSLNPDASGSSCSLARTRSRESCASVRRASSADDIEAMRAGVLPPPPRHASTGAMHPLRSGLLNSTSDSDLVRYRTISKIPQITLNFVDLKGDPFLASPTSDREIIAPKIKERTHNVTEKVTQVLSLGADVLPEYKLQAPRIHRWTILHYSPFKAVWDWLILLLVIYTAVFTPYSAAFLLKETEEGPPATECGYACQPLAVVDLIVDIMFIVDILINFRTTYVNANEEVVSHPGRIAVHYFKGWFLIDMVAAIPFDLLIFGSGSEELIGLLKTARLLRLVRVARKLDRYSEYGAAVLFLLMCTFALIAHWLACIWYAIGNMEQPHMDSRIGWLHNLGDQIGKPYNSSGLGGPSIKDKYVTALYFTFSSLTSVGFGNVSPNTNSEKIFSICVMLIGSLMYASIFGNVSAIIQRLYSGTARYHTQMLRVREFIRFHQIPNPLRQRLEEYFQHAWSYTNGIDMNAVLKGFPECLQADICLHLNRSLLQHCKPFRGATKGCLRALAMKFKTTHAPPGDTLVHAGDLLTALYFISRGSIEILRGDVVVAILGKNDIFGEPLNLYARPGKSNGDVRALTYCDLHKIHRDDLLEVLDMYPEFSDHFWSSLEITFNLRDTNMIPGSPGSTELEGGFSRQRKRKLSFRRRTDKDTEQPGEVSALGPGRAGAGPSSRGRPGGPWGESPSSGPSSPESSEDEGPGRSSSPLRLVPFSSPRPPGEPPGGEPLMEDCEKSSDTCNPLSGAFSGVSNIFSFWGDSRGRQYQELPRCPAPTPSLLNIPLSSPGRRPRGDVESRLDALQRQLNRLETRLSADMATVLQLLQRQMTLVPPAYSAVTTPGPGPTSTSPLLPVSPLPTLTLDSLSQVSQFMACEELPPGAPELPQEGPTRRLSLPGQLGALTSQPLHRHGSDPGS
row,Structure (SMILES),"hERG current change (%, negative = inhibition) at 1uM [%]"
1,O=c1[nH]c2ccccc2[n+]([O-])c1-c1ccccc1,12.2
2,COc1ccc(OC)c(NC(=O)C2CCN(Cc3cnn(-c4ccccc4)c3-n3cccc3)CC2)c1,5.58
3,O=C(NCCc1ccccc1)C1CCN(C(=O)c2sccc2-n2cccc2)CC1,8
4,O=[N+]([O-])c1cccc(S(=O)(=O)Nc2cccc(-c3ccc(N4CCOCC4)nn3)c2)c1,4.35
5,COC(=O)C1CCN(C(=O)COC(=O)c2oc3ccccc3c2C)CC1,4.08
6,CC(C)N(C(=S)NCc1ccccc1)C(C)C,8.61
7,O=C(Nc1cccc(-c2nn[nH]n2)c1)c1ccc(Br)s1,8.98
8,Cc1cccc(-n2c(SCc3cc(=O)n4ccsc4n3)nc3ccccc32)c1,4.45
9,COc1ccc(CC(=O)Nc2nc(-c3ccc(F)c(F)c3)cs2)cc1,7.95
10,Cn1c(CNC(=O)CNC(=O)c2ccc(C(C)(C)C)cc2)cc(=O)n(C)c1=O,9.45
11,COc1ccc(S(=O)(=O)N2CCOC23CCN(C(=O)c2c(F)cccc2Cl)CC3)cc1,10.8
12,CCC1=NN(C(=O)c2ccccc2O)C(O)(c2ccccc2)C1 (stereo not shown),8.3
13,COCCSc1nnc(NC(=O)C2CC(=O)N(c3ccc(C)cc3)C2)s1 (stereo not shown),9.23
14,CCOC(=O)C1CCCN(C(=O)CCCn2c(=O)c3cccn3c3cccnc32)C1 (stereo not shown),10.8
15,Cc1cc(=O)oc2cc(OCCc3ccccc3)ccc12,3
16,CCCNC(=O)COC(=O)/C=C/c1ccc2c(c1)OCO2,14.1
17,COc1ccc2c(c1)[nH]c1c(N3CCN(Cc4ccc5c(c4)OCO5)CC3)ncnc12,-8.29
18,O=C(Nc1ccc(S(=O)(=O)N2CCOCC2)cc1)c1ccc(Cl)s1,4.62
19,COc1ccc(NC(=O)N2CCC(C(=O)c3ccc(F)cc3)CC2)cc1,5.17
20,Cc1ccc(S(=O)(=O)N(C)C)cc1NC(=O)CSc1nncs1,5.7
21,O=C(/C=C\c1cn(-c2ccccc2)nc1-c1ccccc1)Nc1nccs1,17.5
22,COc1cc(OC)cc(C(=O)N2CCC3(CC2)NCCc2[nH]cnc23)c1,16.3

row,Structure (SMILES),"hERG current change (%, negative = inhibition) at 1uM [%]"
1,S=C1NC2=C(CCC/C2=C\c2ccc(Cl)cc2)C(c2ccc(Cl)cc2)N1 (stereo not shown),8.98
2,OC1COC(OCC2OC(OCc3ccccc3)C(O)C(O)C2O)C(O)C1O (stereo not shown),-10.9
3,CC(=O)Nc1ccc(C(=O)NNC(=O)c2ccc(Cl)cc2Cl)cc1,15.3
4,Oc1ccccc1C(=S)N1CCCC1,12
5,Cc1cccc(C(=O)NCCCNC(=O)c2cccc(C)c2)c1,7.74
6,Cc1ccc(S(=O)(=O)NC2(C(F)(F)F)NC(=O)N(C)C2=O)cc1 (stereo not shown),12.3
7,OCC1(CCOc2ccccc2)CCN(Cc2cccn2-c2ncccn2)CC1,-82.4
8,CC1CCN(C(=O)Cn2nnnc2CN2CCOCC2)CC1,-2.88
9,COc1ccc(Nc2nc(-c3ccccc3)nc3ccccc23)cc1S(=O)(=O)N1CCOCC1,2.46
10,O=C(Nc1cccc(Cl)c1Cl)c1cc(S(=O)(=O)NCCc2ccccc2)ccc1F,7.02
11,Cc1cccc(CSc2ncnc3ccccc23)c1,11.9
12,CC1CCN(S(=O)(=O)c2ccc(C(=O)OC(C)C(=O)NC3CCCCC3C)cc2)CC1 (stereo not shown),4.2
13,CCOC(=O)Cn1nc(-c2ccccc2)c2cnc3ccc(CC)cc3c21,14.3
14,COc1ccc(-c2ccc(NC(=O)c3ccc(Br)o3)cc2)nn1,5.87
15,CCOc1ccccc1NS(=O)(=O)c1ccc(Br)s1,5.39
16,COc1ccc(Cl)cc1S(=O)(=O)N1CCC(C(=O)N2CCOCC2)CC1,6.86
17,CC(C)[C@H](NC(=O)OCc1ccccc1)C(=O)OCC(=O)NC1CCCCC1,8.14
18,CCOc1ccc(NC2OC(CO)C(O)C(O)C2O)c([N+](=O)[O-])c1 (stereo not shown),12.1
19,CCC(C)(C)NC(=O)Cc1ccc(Cl)cc1,1.1
20,COc1cc(C(=O)OCCNC(=O)c2ccccc2)cc(OC)c1OC,5.6
21,CCCc1noc(-c2ccc(-c3ccccc3)cc2)n1,3.45
22,CC(C)CCNC(=O)CSc1nc2ccccc2s1,13.9

row,Structure (SMILES),"hERG current change (%, negative = inhibition) at 1uM [%]"
1,COc1ccc(OC)c(S(=O)(=O)N2CCC(C(=O)NCCC3=CCCCC3)CC2)c1,0.368
2,N#Cc1ccccc1NC(=S)NC(=O)c1cccnc1,12.1
3,CCCCn1c(N)c(N(C)C(=O)c2ccc(-n3cccn3)cc2)c(=O)[nH]c1=O,6.43
4,CC(=O)c1ccc(NC(=O)CSc2ccc(-c3ccc(-n4cccn4)cc3)nn2)cc1,-17.2
5,O=C(c1ccccc1)N1CCN(C(=O)N2CCOCC2)CC1,23.6
6,CCOC(=O)c1[nH]c2ccc(OC)cc2c1NC(C)=O,3.16
7,Cc1ccc(NC(=O)C(C)N2C(=O)C3CC=C(Cl)CC3C2=O)cc1 (stereo not shown),5.34
8,COc1ccc(NC(=O)CSc2nnc(-c3ccco3)c(-c3ccco3)n2)cc1OC,10.4
9,CC(Sc1nnc2c(n1)C1(C)CCC2C1(C)C)C(=O)Nc1ccccc1 (stereo not shown),-1.46
10,CCOC(=O)C1=C(N)Oc2cc(O)ccc2C1c1cccnc1 (stereo not shown),6.7
11,COc1ccc2sc3ccccc3c(=O)c2c1OC,19
12,CC(=O)Nc1ccc(C(=O)Nc2nc(-c3cccnc3)cs2)cc1,5.99
13,Cc1ccc(CCNC(=O)c2nnn(-c3cc(C)cc(C)c3)c2N)cc1,8.01
14,COc1ccccc1CC(=O)Nc1ccc(C(=O)N2CCCCC2)cc1,10.6
15,Cc1cc(C(=O)CS(=O)c2ccc(F)cc2)cc(C)c1OC(=O)N(C)C (stereo not shown),14.3
16,O=C(NC1CS(=O)(=O)CC1NCc1ccccc1)c1ccccc1 (stereo not shown),10.4
17,O=C(CCCn1cnc([N+](=O)[O-])n1)Nc1ccc(Cl)cc1Cl,-7.13
18,CCOc1ccc(C2CC(c3cccc(Cl)c3)n3nc(N)nc3N2)cc1 (stereo not shown),11.5
19,CN(C)c1cc2c(cc1NS(=O)(=O)c1ccccc1)n(C)c(=O)n2C,11.2
20,O=S(=O)(Cc1ccc(Cl)cc1)N1CCN(c2ncccn2)CC1,4.96
21,CC(NC(=O)CN1C(=O)NC(Cc2ccccc2)(Cc2ccccc2)C1=O)C12CC3CC(CC(C3)C1)C2 (stereo not shown),6.65
22,Cc1ccc(S(=O)(=O)N2CCOCC2)cc1C(=O)OCC(=O)Nc1ccc2c(c1)OCO2,10.7

row,Structure (SMILES),"hERG current change (%, negative = inhibition) at 1uM [%]"
1,O=C1NC(Cc2ccccc2)C(=O)N1CC(=O)N1CCCc2ccccc21 (stereo not shown),5.14
2,CC(C)(C)OC(=O)CC1(C#N)c2ccccc2C(Br)=CN1C(=O)c1ccccc1 (stereo not shown),4.29
3,O=C(c1c(F)cccc1F)N(Cc1cccs1)C1CCCC1,11.5
4,NC1=NC(c2ccc([N+](=O)[O-])cc2)N(c2ccc(F)cc2)C(N)=N1 (stereo not shown),11.9
5,CCOC(=O)COc1cc(=O)n(CC)c2ccccc12,3.81
6,c1ccc(-n2c(-c3ccncc3)nnc2-c2cccs2)cc1,-3.73
7,CCN1C(=O)N[C@@H](c2cccc(F)c2)C(C(=O)OC)=C1C,20.4
8,COc1ccc(NC(=O)c2ccco2)cc1NC(=O)c1ccco1,-13.5
9,CN1CCN(CCc2nc3cc(NC(=O)COc4ccc([N+](=O)[O-])cc4)ccc3n2C)CC1,12
10,O=[N+]([O-])c1cc(C(F)(F)F)ccc1NCCc1c[nH]c2ccccc12,4.69
11,CCOc1ccc(-n2cnc3c(=O)[nH]c(N)nc32)cc1,-1.21
12,COc1ccc(Cl)cc1N/C(N)=N/c1nc(C)cc(C)n1,-79.1
13,COc1cc(/C=N/Nc2ccc3ccccc3c2)ccc1OC(=O)c1ccco1,15.3
14,COc1ccc2nc(N/C(N)=N/C(=S)Nc3cccc(C)c3)nc(C)c2c1,5.47
15,COc1ccc(CN(C(=O)c2ccc3c(c2)OCCO3)C(C(=O)NC2CCCCC2)c2ccc3ncccc3c2)cc1 (stereo not shown),0.939
16,COc1ccc(Cl)cc1NC(=O)CN(C)C(=O)Cc1ccc(-c2ccccc2)cc1,9.48
17,Cc1nn2c([nH]c(=O)c3ccccc32)c1C=O,-8.39
18,Cc1cc(=O)n2c3ccccc3n(CC(O)CN3CCOCC3)c2c1C#N (stereo not shown),9.67
19,Cc1cccnc1NC(=O)Cn1c(=O)oc2ccccc21,16.9
20,CCOC(=O)N1CCN(S(=O)(=O)c2c(C)nc3scc(C)n3c2=O)CC1,12.3
21,Cc1cc(C(=O)Nc2cccc([N+](=O)[O-])c2C)cs1,12.6
22,CC1CCC(C(C)C)C(OC(=O)CSc2n[nH]c(=O)[nH]c2=O)C1 (stereo not shown),-1.05
